This passage reports displacement results from PubChem BioAssay AID1240 (Sanford-Burnham Center for Chemical Genomics, 2008).

The whole screen tested about 50,000 compounds, of which about 800 (1.6%) showed an effect of 50% or more. The list shows a part of the results.

For this assay, the target named is Bcl-2-like protein 10 (Homo sapiens) (UniProt Q9HD36). In words: TR3 peptide-Bcl-B binding displacers, biochemical primary FP assay, phenotype converters (AID 1240).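 Note: 0% = Bcl-B with tracer peptide and DMSO and 100% = tracer peptide lacking Bcl-B.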 The conditions noted are these: GST-Bcl-B / FITC-TR3 peptide fluorescence polarization; stronger effect = higher value; compound at 3.75 mg/L.
UniProt Q9HD36, sequence (Q9HD36 whole entry, looked up): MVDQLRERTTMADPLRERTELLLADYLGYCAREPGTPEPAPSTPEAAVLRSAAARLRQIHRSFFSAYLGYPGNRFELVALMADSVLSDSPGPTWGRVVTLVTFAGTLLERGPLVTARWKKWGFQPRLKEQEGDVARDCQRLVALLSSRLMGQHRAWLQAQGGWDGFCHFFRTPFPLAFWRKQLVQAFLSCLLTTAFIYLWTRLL
`Cc1nc(SCC(=O)c2ccccc2)c(C#N)c(-c2cccc(Cl)c2)c1C(=O)Nc1ccccc1`: the displacement is 2.8%.

With `CN1CCN(NC(=O)c2ccc(Cl)cc2[N+](=O)[O-])CC1`, the displacement was -5.8%.

For the compound `COc1cc(C(=O)NC(NC(=S)Nc2ccc(NC(C)=O)cc2)C(Cl)(Cl)Cl)cc(OC)c1OC` (stereo not drawn), the displacement is -9.2%. On to `COc1ccc(CCNC(=O)C(=O)Nc2cc(Cl)ccc2C)cc1OC`, for which the displacement was found to be 4.7%. In the case of `C/C(=N\N1C(=O)c2ccccc2C1=O)c1cccc([N+](=O)[O-])c1`, the displacement is -1.5%. Take `C(=NN1CCN(Cc2ccccc2)CC1)c1cccc(Oc2ccccc2)c1`: the displacement was 5.2%.

Consider `CC(NC(=O)/C(CCCC#N)=N/O)c1ccccc1` (stereo not drawn), for which the displacement was -21.5%. `COc1cccc(C(=O)Oc2ccc3c(C)cc(=O)oc3c2)c1`: the displacement was -3.7%. The same measure for `O=C(Nc1scc(-c2cccs2)c1C(=O)O)c1ccccc1I`: -10.3%; for `CC(=O)N1CCN(c2ccc(NC(=O)c3cc(Cl)ccc3Cl)cc2)CC1`: 6.7%; for `N#C/C(=C\c1cccc(O)c1)C(=O)NCC1CCCO1` (stereo not drawn): -11.1%. As to `COc1ccc(CNc2ccc(C)cc2Br)cc1OC`, the displacement turned out to be 7.9%.

Turning to `O=S(Cc1ccc(Cl)cc1)CC(O)COCc1ccc(Cl)cc1` (stereo not drawn), the displacement came out at 7.9%. Consider `O=C1CSC(=S)N1/N=C/c1ccc(OCCOc2ccc(Br)cc2)cc1`, for which the displacement is -1.9%.

On to `NNC(=O)c1cc(-c2cccc3ccccc23)n[nH]1`, for which the displacement was -24.4%. Turning to `Cc1[nH]c2c(ccc3ccccc32)c(=O)c1CN1CCOCC1`, the displacement is -0.7%.

For the compound `NC(=O)c1ccc(NC(=O)C2COc3ccccc3O2)cc1` (stereo not drawn), the displacement came to 2.5%.

Turning to `Cc1ccc([N+](=O)[O-])cc1NC(=O)c1ccc(I)cc1`, the displacement is 6.9%.

For the compound `O=C(COc1ccc(Cl)cc1Cl)N/N=C/CCc1ccccc1`, the displacement was found to be 21%. Turning to `O=C(Nc1cccc2ccccc12)c1cc(-c2ccco2)nc2ccccc12`, the displacement worked out at 34.2%. For `Cc1ccccc1C(=O)NNC(=O)c1ccc(Cl)cc1`, the displacement was -5.9%.

`CC(=O)c1ccc(NC(=O)c2ccc(-c3cccc(Cl)c3)o2)cc1`: the displacement was 8.8%. As to `O=C(COc1ccc(Cl)cc1Br)NCC1CCCO1` (stereo not drawn), the displacement was -4.6%. Take `CC1(C(=O)Nc2cccc3ccccc23)CCCCC1`: the displacement came out at 3.2%. Regarding `Cc1cc(C)c(NS(=O)(=O)c2cc(C)ccc2C)c(C)c1`, the displacement came out at 10.3%.

Take `O=C(CCc1ccccc1)Nc1cc(Cl)c(Cl)cc1Cl`: the displacement was 14.1%. The value for `O=S(=O)(c1ccc(Cl)cc1)c1ccc(Oc2ccc(Cl)cc2)cc1` was -3.5%. Take `CCSc1nnc(NC(=O)COc2ccccc2)s1`: the displacement amounted to 16.5%. The same measure for `CCOC(=O)c1c(-c2ccccc2)oc2ccc(OCC(=O)N(CC)CC)cc12`: 9.9%; for `COC(=O)c1ccc(/C=N/NC(=O)C2CC(=O)N(c3ccc(OC)cc3)C2)cc1` (stereo not drawn): -4.3%. For the compound `O=c1/c(=C/c2cc(Cl)c(OCCOc3ccccc3)c(Cl)c2)sc2nc3ccccc3n12`, the displacement was 18.1%. Take `CC1=C(C(=O)Nc2ccccc2)C(c2ccc(Cl)cc2)C(C(=O)Nc2ccccc2)=C(C)N1`: the displacement was 7.8%. Turning to `COCCCNCCCCOc1cc(C)cc(C)c1C`, the displacement was -7.2%. As to `COCc1cccc(N2C(=O)c3cccc([N+](=O)[O-])c3C2=O)c1`, the displacement amounted to 2.9%. For `COc1cccc(/C=C2\C(=O)NC(=O)N(c3cc(C)cc(C)c3)C2=O)c1OC`, the displacement was 6.3%. With `Cc1ccc(NC(=O)c2cnn(-c3ccccc3)c2NC(=O)c2ccccc2Cl)cc1C`, the displacement amounted to 3.3%. On to `O=C(Nc1ccc(F)cc1F)c1ccco1`, for which the displacement is -6.6%. With `Cc1cc(-c2ccccc2)nc(N/N=C/c2ccccc2F)n1`, the displacement is -3.8%. For `CCOc1ccccc1N1COc2ccc3ccccc3c2C1`, the displacement is -3.7%. On to `CCOc1ccc(-n2c(O)c(C=Nc3ccc(C)cc3)c(=O)[nH]c2=O)cc1`, for which the displacement was -8.1%.

Regarding `Cc1ccc(C(=O)CCNc2ccccc2)o1`, the displacement was found to be 4.7%.

Turning to `Cc1ccc(C(=O)Nc2cccc(NC(=O)c3ccc(C)c(C)c3)c2)cc1`, the displacement was -4.5%. Regarding `CCn1c2ccccc2c2cc(NC(=O)C/C(C)=N/NC(=O)OCc3ccc(OC)cc3)ccc21`, the displacement is -0.6%.

Take `CCOc1ccccc1NC(=O)C(=O)NCc1ccccc1OC`: the displacement worked out at 2.8%.

As to `COC(=O)C1=C(C)NC(C)=C(C(=O)OC)C1c1ccc(I)cc1`, the displacement amounted to 6.1%. As for `CCOc1ccc(C(=O)Nc2ccncc2)cc1`, the displacement came to 14.6%. Regarding `CC(=O)Nc1ccc(S(=O)(=O)Nc2ccc(C)c(Br)c2)cc1`, the displacement is -5.9%. With `CCC(C#CCN(CC)CC)OC(C)=O` (stereo not drawn), the displacement came to 4.7%. Turning to `COc1ccc(C(=O)/C=C/Nc2ccccc2F)cc1`, the displacement was determined as 5.6%. On to `COc1ccc(C)cc1NC(=O)c1cc(-c2cccs2)nc2ccccc12`, for which the displacement came to 8.8%. Consider `Cc1cc(C)c(OCCCCN2CCCCC2)c(Cl)c1`, for which the displacement is -7.1%. Regarding `CCC(=O)Oc1cc2c(C(=O)OC)c(C)oc2cc1Br`, the displacement stood at 7.1%.

With `CC(C)c1ccc(NC(=O)c2ccc(CN3CCOCC3)cc2)cc1`, the displacement was -9.8%. The value for `CCc1nnc(NC(=O)CCCOc2ccc(Cl)cc2C)s1` was -1%; that for `Cc1cc(Br)ccc1S(=O)(=O)n1ccnc1` was 5%; that for `Cc1ccc(N(Cc2ccc(C(=O)N3CCCCC3)cc2)S(C)(=O)=O)cc1C` was -5.9%. As for `O=C(Nc1ccc(N2CCOCC2)cc1)c1ccc(-c2ccc(Cl)cc2Cl)o1`, the displacement was -4.5%. For the compound `CCOC(=O)CSc1nc(N)c(C#N)cc1C#N`, the displacement was -4.8%. Take `CCOc1cc(C2Nc3ccccc3C(=O)N2Cc2ccco2)ccc1O` (stereo not drawn): the displacement was 18.5%. With `Cc1c(N2C(=O)CSC2c2ccccc2Cl)c(=O)n(-c2ccccc2)n1C` (stereo not drawn), the displacement worked out at 8.5%.

With `COc1ccc(CC(=O)N2CCCc3ccccc32)cc1OC`, the displacement is -6.2%. As to `O=[N+]([O-])c1cccc(S(=O)(=O)Nc2ccc(I)cc2)c1`, the displacement worked out at 4.1%. With `O=C(Nc1cccc([N+](=O)[O-])c1)c1cc(-c2ccco2)nc2ccccc12`, the displacement is 6.8%. For the compound `Cc1ccc(S(=O)(=O)N(CCC#N)C2CCCCC2)c2nsnc12`, the displacement was 5.6%. In the case of `Cc1ccc2nsnc2c1NC(=O)c1ccccc1[N+](=O)[O-]`, the displacement stood at 0.3%. For `O=C(NCC1CCCO1)c1ccc(C(=O)NCC2CCCO2)nc1` (stereo not drawn), the displacement is -1.1%. As for `O=C(NC(=S)Nc1cc(Cl)ccc1Cl)c1ccco1`, the displacement was 4%. The same measure for `CCC(=O)N1N=C2c3cc(OC)ccc3CCC2C1c1ccc(F)cc1` (stereo not drawn): 7.1%. In the case of `CSc1nc2ccc(N3C(=O)c4ccccc4C3=O)cc2s1`, the displacement is -4.7%. Consider `CCOC(=O)C1=C(c2ccccc2)N=c2s/c(=C\c3cc(OC)c(OC)c(OC)c3)c(=O)n2C1c1cccs1` (stereo not drawn), for which the displacement was -2.3%. In the case of `COc1ccc(CCNC(=O)c2ccc(C#CC(C)(C)O)cc2)cc1OC`, the displacement was -7.3%. On to `CN1C(=O)C(=Cc2ccc(-c3ccccc3Cl)o2)C(=O)N(C)C1=O`, for which the displacement came to 30.9%.

Regarding `O=C1CCC(=O)N1c1ccc(-c2nc3ccc(N4C(=O)CCC4=O)cc3[nH]2)cc1`, the displacement is -11.9%.
